Reference: PubChem BioAssay (NCATS)
The shares of active, inactive and inconclusive entries below differ from those in the screen. Potencies beside an inconclusive call are fits to weak or partial responses and may not hold up. The source made the active and inactive calls. Calls come from the whole dose curve; as a rule, active = well fitted cell-killing curve with a large enough effect; inconclusive = small, poorly fitted or top-dose-only effect, or effect the other way; inactive = no such curve, though single readings can be large or run the other way.

Test: Viability qHTS for spleen associated tyrosine kinase inhibitor (SYKi) naive MV4-11 cells (AID 1963823); note: nearly all actives have a fitted effect of over 40% in size
Details: MV4-11 AML viability, CellTiter-Glo luminescence, 72 h; viability (% of control): at 45 µM (top of the series)
In short: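 CellTiter-Glo luminescence, 10 min room-temperature incubation, gave viability. Cells: naive MV4-11 (500/well), treated 72 hr at 37 C, 5% CO2.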
Potency is the fitted concentration of half-maximal effect; tags give direction and shape of the fitted curve.

Row | Structure (SMILES) | viability (% of control) | Potency
1 | CN1Cc2cc(C(=O)N3CCC(C4CCNCC4)CC3)ccc2NC(CC(=O)O)C1=O (stereo not given) | inactive: 82.9% | –
2 | COC1CC/C=C(\C)C(=O)Nc2cc(O)cc(c2)CC(C)CC(OC)C(O)C(C)/C=C(\C)C1OC(N)=O (stereo not given) | – | inconclusive: 0.632 µM [cytotoxic, full curve]
3 | CCCSc1nc(N[C@@H]2C[C@H]2c2ccc(F)c(F)c2)c2nnn([C@@H]3C[C@H](OCCO)[C@@H](O)[C@H]3O)c2n1 | – | inconclusive: 29.1 µM [cytotoxic, single point]
4 | C[C@@H]1CCC2C(C)(C)[C@H](O)CC[C@]2(C)[C@@]12Cc1c(O)cc3c(c1O2)CN([C@@H](CCC(=O)O)C(=O)O)C3=O (stereo not given in full) | – | inconclusive: 2.52 µM [cytotoxic, single point]
5 | COCC1OC(n2cnc3c(=O)[nH]cnc32)C(O)C1O (stereo not given) | – | inconclusive: 6.51 µM [cytotoxic, partial curve, poor fit]
6 | NC(N)=NCCC[C@H](NC(=O)c1sccc1NS(=O)(=O)c1cccc2nsnc12)C(=O)O | – | inconclusive: 23.1 µM [cytotoxic, single point]
7 | CCn1c(=O)n([C@H]2CCCN(c3nccc(-c4cc5ccccc5o4)n3)C2)c2ccccc21 | – | inconclusive: 10.3 µM [cytotoxic, partial curve]
8 | COc1ccc2cc(OCC3(C(=O)O)CN(C(=O)c4ccc(F)cc4)C3)ccc2c1 | inactive: 59.4% | –
9 | OC1COC(OCC2OC(OCCc3ccccc3)C(O)C(O)C2O)C(O)C1O (stereo not given) | inactive: 84.8% [at 17.3 µM] | –
10 | C=C1CC2OC(=O)C(COC)C2C(OC(=O)/C(C)=C\C)CC2(C)OC1=CC2=O (stereo not given) | – | inconclusive: 1.43 µM [cytotoxic, full curve]
